Results reported in the supplement of paper PMC7238544.
Structures can show the parent of a compound that is named as a salt. ± gives the standard deviation of the averaged measurements. This is one part of the list.

The compounds below were run on hAMSC donor 2 (assay: transfection efficiency (EGFP+ cells / Hoechst count) fold change vs vehicle control (ratio); hAMSC are human adipose-derived mesenchymal stem cells given an EGFP-luciferase plasmid by lipofection; higher = enhanced transfection). Conditions: priming compound concentration 100 µM.
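Note: compounds added 30 min before Lipofectamine 3000 lipoplex transfection, triplicate means relative to DMSO vehicle wells on the same plate, luciferase RLU normalized to BCA total protein.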

Row | Structure (SMILES) | transfection efficiency
1 | C=C(CC)C(=O)c1ccc(OCC(=O)O)c(Cl)c1Cl [Ethacrynic acid] | 1.16 ± 0.26
2 | CN(C)CCC=C1c2ccccc2CCc2ccccc21 [Amitriptyline hydrochloride] | 0.676 ± 0.25
3 | C[C@]12C=CC(=O)C=C1CC[C@@H]1[C@@H]2C(=O)C[C@@]2(C)[C@H]1CC[C@]2(O)C(=O)CO [Prednisone] | 0.997 ± 0.26
4 | Nc1nc(=O)c2nc(CNc3ccc(C(=O)N[C@@H](CCC(=O)O)C(=O)O)cc3)cnc2[nH]1 [Folic acid] | 1 ± 0.069
5 | CC[C@H]1OC(=O)[C@H](C)[C@@H](O[C@H]2C[C@@](C)(OC)[C@@H](O)[C@H](C)O2)[C@H](C)[C@@H](O[C@@H]2O[C@H](C)C[C@H](N(C)C)[C@H]2O)[C@](C)(OC)C[C@@H](C)C(=O)[C@H](C)[C@@H](O)[C@]1(C)O [Clarithromycin] | 0.576 ± 0.17
6 | CN1CCN(CCCN2c3ccccc3Sc3ccc(C(F)(F)F)cc32)CC1 [Trifluoperazine hydrochloride] | 0.575 ± 0.33
7 | NNCCc1ccccc1 [Phenelzine sulfate] | 1.25 ± 0.17
8 | O=C(O[C@@H]1C[C@@H]2C[C@H]3C[C@H](C1)N2CC3=O)c1c[nH]c2ccccc12 [Dolasetron mesylate] | 1.35 ± 0.44
9 | CC(C)NCC(O)c1ccc(NS(C)(=O)=O)cc1 (configuration not stated) [Sotalol hydrochloride] | 1.22 ± 0.013
10 | Cc1ncc([N+](=O)[O-])n1CC(O)CCl (configuration not stated) [Ornidazole] | 0.886 ± 0.12
11 | CNC(=N)NCCC[C@H](N)C(=O)O [L-NMMA acetate] | 1.08 ± 0.12
12 | C[C@]12CCC(=O)C=C1CC[C@@H]1[C@@H]2C(=O)C[C@@]2(C)[C@H]1CC[C@]2(O)C(=O)CO [Cortisone] | 1.04 ± 0.33
